# Laboratory results reported in PubChem BioAssay (Tox21).
# The shares of active, inactive and inconclusive entries below differ from those in the screen. For part of these data: Potencies beside an inconclusive call are fits to weak or partial responses and may not hold up. The source made the active and inactive calls. Unless noted, calls come from the whole dose curve; as a rule, active = well fitted curve in the direction sought with a large enough effect in the repeat runs; inconclusive = weak or mixed curves; inactive = no such curve, though single readings can be large; an effect the other way counts as inactive or inconclusive.
# Legend:
# [1] = target: Nuclear receptor subfamily 1 group I member 3 (Homo sapiens) (UniProt Q14994); experiment: qHTS assay to identify small molecule agonists of the constitutive androstane receptor (CAR) signaling pathway (AID 1224839); note: nearly all actives have a fitted effect of over 15% in size; note: potency is the fitted concentration of half-maximal effect;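 for activation: HepG2 cells stably carrying human CAR and a CYP2B6 luciferase reporter; % is set by controls: 0 for no effect and ±100 for the full control effect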
# Outline: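 HepG2 cells stably co-transfected with hCAR and a CYP2B6-2.2kb luciferase reporter; compounds at 15 concentrations with 0.75 uM PK11195 present. After 24 hr at 37 C, luciferase read by ONE-Glo luminescence.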
# [2] = qHTS RealTime-Glo MT Cell Viability Assay in HEK293 cells - 32 hour (AID 1224868); note: nearly all actives have a fitted effect of over 50% in size; note: potency is the fitted concentration of half-maximal effect
# Outline: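 Viability tracked continuously by luminescence as live cells reduce a prosubstrate for NanoLuc; HEK293 cells preincubated 5 h, compound-treated at 37 C, and read at 0, 8, 16, 24, 32 and 40 h.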
# [3] = qHTS assay to identify small molecule agonists of H2AX (AID 1224845; active = well fitted activation curve with a large enough effect in the signal ratio in the repeat runs, not every such curve was filed as active; inconclusive = weak or mixed curves; the % refers to the signal ratio; note: potency is the fitted concentration of half-maximal effect; for activation (H2AX phosphorylation): % is set by controls: 0 for no effect and ±100 for the full control effect); conditions: CHO-K1 phospho-H2AX Ser139 HTRF, 3 h; activation (H2AX phosphorylation): at 154 µM (top of the series) unless noted
# Outline: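 Phospho-H2AX Ser139 measured by HTRF (ex 320 nm; em 665 and 620 nm) after 24 hr antibody incubation. Compounds, 15 concentrations, 0.76% DMSO, were applied to CHO-K1 cells for 3hr at 37C before lysis.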
# [4] = qHTS assay to identify small molecule agonists of H2AX - cell viability counter screen (AID 1224847; calls by dose curve; note: potency is the fitted concentration of half-maximal effect; nearly all actives have a fitted effect of over 30% in size)
# Outline: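 CHO-K1 cells plated overnight at 37C, then exposed 3 h at 37C to compounds at 15 concentrations (0.76% DMSO final). Viability by CellTiter-Glo luminescence after 30 min at room temperature.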
# [5] = qHTS assay to identify small molecule agonists of the hypoxia (HIF-1) signaling pathway - cell viability counter screen (AID 1224844; calls by dose curve; note: nearly all actives have a fitted effect of over 50% in size; note: potency is the fitted concentration of half-maximal effect)
# Outline: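 Cells (HRE-bla ME-180, 2,000 per well) sat 5 hrs at 37C, got compound for 17 hrs, were read for CCF4-AM FRET, and were finally lysed with CellTiter-Glo for a 30 min room-temperature luminescence read.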
# [6] = target: Thyrotropin receptor (Homo sapiens) (UniProt P16473); experiment: qHTS assay to identify small molecule agonists of the thyroid stimulating hormone receptor (TSHR) signaling pathway (AID 1224843; calls by dose curve; note: % is set by controls: 0 for no effect and ±100 for the full control effect; nearly all actives have a fitted effect of over 45% in size); conditions: TSHR-HEK293 cells, cAMP HTRF, agonist mode, 30 min; activation: at 92.4 µM (top of the series) unless noted
# Outline: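 Screening of the Tox21 10K collection used HEK293 cells engineered with TSHR at 800 cells per well. After a 30-min room-temperature compound exposure, HTRF cAMP reagents were added and fluorescence recorded 1 h later.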
# [7] = qHTS assay to identify small molecule antagonists of the estrogen related receptor (ERR) signaling pathway from Tox21 library (AID 1224848); note: potency is the fitted concentration of half-maximal effect; nearly all actives have a fitted effect of over 50% in size
# Outline: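 Antagonist-mode screen of the Tox21 10K library in an NTP-provided ERR reporter cell line; 18 h compound exposure at 37 C, luminescence measured with ONE-Glo.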
# [8] = qHTS assay to identify small molecule antagonists of the estrogen related receptor signaling pathway with the pleiotropic PPARgamma coactivator (PGC) from Tox21 10K library (AID 1224841; call rule not given here; note: % is set by controls: 0 for no effect and ±100 for the full control effect; actives are mostly falling curves and most rising ones were filed inactive; nearly all actives have a fitted effect of over 50% in size)
# Outline: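 qHTS antagonist format: PGC/ERR cells, 2k/well, compound in DMSO by pin transfer after 6 h attachment, 18 h treatment at 37 C, One-Glo luminescence read at 30 min.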
# [9] = qHTS assay to identify small molecule agonists of the hypoxia (HIF-1) signaling pathway (AID 1224846; active = well fitted activation curve with a large enough effect in the signal ratio in the repeat runs, not every such curve was filed as active; inconclusive = weak or mixed curves; the % refers to the signal ratio; note: potency is the fitted concentration of half-maximal effect); conditions: HRE-bla ME-180 cells, beta-lactamase ratio, 17 h; activation: at 76.8 µM (top of the series) unless noted
# Outline: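 A low-serum medium (0.5% dialyzed FBS) holding 2,000 HRE-bla ME-180 cells per well is preincubated for 5 hrs, dosed with compounds by pintool, and kept a further 17 hrs at 37C, 5% CO2 before CCF4-AM FRET detection of beta-lactamase.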
# Tags give direction and shape of the fitted curve or compound fluorescence and quenching.
# Sequence of UniProt Q14994 (Q14994 whole entry, looked up): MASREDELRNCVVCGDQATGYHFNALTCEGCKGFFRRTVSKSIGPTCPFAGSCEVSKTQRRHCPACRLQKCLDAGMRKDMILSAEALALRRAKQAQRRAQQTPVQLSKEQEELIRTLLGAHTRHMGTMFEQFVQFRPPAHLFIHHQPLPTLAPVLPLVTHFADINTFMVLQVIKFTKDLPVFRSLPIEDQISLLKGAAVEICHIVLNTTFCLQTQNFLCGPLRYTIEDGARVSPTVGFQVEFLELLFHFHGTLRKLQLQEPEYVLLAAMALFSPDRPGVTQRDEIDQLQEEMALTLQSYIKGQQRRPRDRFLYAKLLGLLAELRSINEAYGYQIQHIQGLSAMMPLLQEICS
# Sequence of UniProt P16473 (P16473 whole entry, looked up): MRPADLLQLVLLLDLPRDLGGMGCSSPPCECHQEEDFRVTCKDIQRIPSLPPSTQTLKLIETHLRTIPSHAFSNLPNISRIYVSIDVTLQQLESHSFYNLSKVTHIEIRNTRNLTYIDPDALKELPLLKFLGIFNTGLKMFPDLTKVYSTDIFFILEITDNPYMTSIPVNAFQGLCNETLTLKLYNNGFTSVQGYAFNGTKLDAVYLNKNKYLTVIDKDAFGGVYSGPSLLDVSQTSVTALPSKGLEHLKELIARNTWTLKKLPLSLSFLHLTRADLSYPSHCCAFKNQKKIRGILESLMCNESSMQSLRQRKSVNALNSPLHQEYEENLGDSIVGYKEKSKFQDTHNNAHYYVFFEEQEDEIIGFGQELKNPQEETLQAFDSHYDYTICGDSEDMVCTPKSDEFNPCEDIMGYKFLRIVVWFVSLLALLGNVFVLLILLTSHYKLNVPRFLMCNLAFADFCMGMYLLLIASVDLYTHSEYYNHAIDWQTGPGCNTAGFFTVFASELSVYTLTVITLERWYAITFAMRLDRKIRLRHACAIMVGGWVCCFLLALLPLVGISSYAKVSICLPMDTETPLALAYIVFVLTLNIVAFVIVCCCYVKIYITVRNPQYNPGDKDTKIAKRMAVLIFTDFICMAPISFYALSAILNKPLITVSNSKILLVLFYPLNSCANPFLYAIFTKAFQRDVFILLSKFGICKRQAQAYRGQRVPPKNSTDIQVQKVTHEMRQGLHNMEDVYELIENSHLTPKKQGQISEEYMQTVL
compound,measurement,setting,value
CCCCCCC(CO)CCCC (configuration not stated),Potency,[1],inactive
same,Potency,[2],inactive
Oc1ccc(Oc2ccccc2)cc1,Potency,[1],inconclusive: 41 µM [activator]
same,Potency,[3],active: 38.1 µM
same,Potency,[4],"inconclusive: 107 µM [cytotoxic, single point]"
O=[N+]([O-])c1cccc(I)c1,Potency,[1],inactive
same,Potency,[5],inactive
same,Potency,[2],inactive
CC1(C)CCC(C)(C)c2cc(C(=O)Nc3ccc(C(=O)O)cc3)ccc21,Potency,[1],inactive
same,Potency,[6],inactive
same,Potency,[3],"inconclusive: 113 µM [falling, partial curve, poor fit]"
same,Potency,[4],"inconclusive: 127 µM [cytotoxic, single point]"
same,Potency,[7],inconclusive: 61.1 µM [inhibitor]
C=Cc1ccccc1,Potency,[1],inactive
same,Potency,[2],inactive
C(=C(c1ccccc1)c1ccccc1)c1ccccc1,Potency,[1],"inconclusive: 27.3 µM [activator, partial curve]"
same,Potency,[5],inactive
CN1CCN2c3ccccc3Cc3ccccc3C2C1 (configuration not stated),Potency,[1],"inconclusive: 26.6 µM [activator, partial curve, poor fit]"
same,Potency,[8],inactive
same,Potency,[5],"inconclusive: 23.9 µM [cytotoxic, partial curve, poor fit]"
same,Potency,[2],inactive
COc1ccc(C(=O)CC(=O)c2ccc(C(C)(C)C)cc2)cc1,Potency,[1],inconclusive: 58.7 µM [activator]
same,activation (H2AX phosphorylation),[3],inconclusive: 11.4% [at 70.9 µM]
same,Potency,[9],inconclusive: 59.1 µM [single point]
COc1cc(CNC(=O)CCCC/C=C/C(C)C)ccc1O,Potency,[1],"inconclusive: 66.8 µM [activator, partial curve, poor fit]"
same,Potency,[4],"inconclusive: 123 µM [cytotoxic, single point]"
same,Potency,[2],active: 7.56 µM
